Measured values published in PubChem BioAssay AID1508624 (National Center for Advancing Translational Sciences (NCATS), 2021).
The whole screen tested about 48,000 compounds, of which about 120 (0.25%) were called active. Roughly 4% stayed inconclusive and do not appear here. Calls come from the whole dose curve; as a rule, active = well fitted activation curve with a large enough effect; inconclusive = small, poorly fitted or top-dose-only effect, or another doubt; inactive = no such curve, though single readings can be large or run the other way. This is one part of the list.

test: Primary qHTS for Identification of Small Molecule Activators of Huntingtin-Antisense Promoter Activity; settings: HEK293 HTT-AS promoter firefly luciferase reporter, 24 h; series mostly up to 57.5 µM; activity change, positive = activation: at the top concentration; note: nearly all actives have a fitted effect of over 55% in size
Summary of the method: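 HEK293 luciferase promoter-reporter cells (2,500/well) plated 24 h, then compounds added at up to 57.5 uM final for 24 h at 37 °C. Firefly luminescence by Dual-Glo, normalized to vehicle (0%) and zero RLU (-100%).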

SMILES	activity change, positive = activation
O=C(Cn1ncc2c3ccccc3n(Cc3ccccc3)c2c1=O)Nc1ccccc1C(F)(F)F	inactive: -9.08%
COc1ccc(OC)c(CNC(=O)CCCn2nc(C)c3c(C)n(-c4ccc(C)cc4)nc3c2=O)c1	inactive: -29%
CCn1ccc2cc(S(=O)(=O)N3CCCN(C(=O)Nc4cc(Cl)ccc4C)CC3)ccc21	inactive: -22.3%
CC(C)c1ccc(NS(=O)(=O)c2ccc3[nH]cc(C(=O)N4CCCC4)c(=O)c3c2)cc1	inactive: -8.51%
COc1cccc(CNC(=O)Cc2c(C)c3c(cc(C)c4c(C)coc43)oc2=O)c1	inactive: -4.47%
CCOc1ccc(NC(=O)Nc2ccc3snnc3c2)cc1	inactive: -4.4%
CCOc1ccc(-c2cc(NC(=O)c3ccc(C)cc3)c(C(=O)OC)s2)cc1	inactive: -2.68%
COc1ccc2c(c1)-c1nc(NC(=O)c3ccc(C)cc3)sc1CC2	inactive: 3.27%
CCCC(=O)C1=C(c2ccc(C)c(C)c2)N(C(=O)CCC)n2c(CC)nnc2S1	inactive: -3.56%
Cn1cnc2c1c(=O)[nH]c(=O)n2C	inactive
COc1ccc(-c2noc(-c3ccc(NCCc4ccccc4)c([N+](=O)[O-])c3)n2)cc1OC	inactive: -0.0927%
CCOc1ccc(NC(=O)C(=O)NCCc2csc3nc(-c4ccccc4F)nn23)cc1	inactive: 0.882%
COC(=O)c1ccc(Cl)cc1NC(=O)N(C)CCc1c(C)nn(C)c1C	inactive: -10.3%
CCOc1ccc(NC(=O)Cn2cc(C(=O)c3ccc(C)c(C)c3)c(=O)c3cc(OC)c(OC)cc32)cc1	inactive: -17.9%
COc1cc(NC(=O)C(CC(C)C)NS(=O)(=O)c2ccc3c(c2)oc(=O)n3C)c(C(=O)O)cc1OC (stereo unspecified)	inactive: 6.21%
CCOC(=O)c1ccc(NC(=O)c2csc3c2CCCCC3)cc1	inactive: 5.75%
O=c1cc(-c2ccc(F)cc2)nc(SCc2nc(-c3ccccc3Cl)no2)[nH]1	inactive: -3.69%
COc1cc(C(=O)Nc2ccc(NC(=O)c3ccc(Br)cc3)cc2)cc(OC)c1OC	inactive: -1.23% [at 11.5 µM, percent change from vehicle, -100% = no light]
COc1ccc(CCn2c3c(c(=O)[nH]c2=O)C(NC(=O)c2ccccc2OC)(C(F)(F)F)C(=O)N3)cc1OC (stereo unspecified)	inactive: 2.59%
CCC1CCCCN1C(=O)CSc1nc2c([nH]c3ccccc32)c(=O)n1-c1cccc(OC)c1 (stereo unspecified)	inactive: -43.4%
Cc1oc(-c2cccc(Cl)c2)nc1CSc1nc2ncccc2[nH]1	inactive: -15.3%
Cc1ccc(-n2ccnc(NCCc3ccc(S(N)(=O)=O)cc3)c2=O)cc1C	inactive: -24.9%
O=C(COc1ccccc1Cl)Nc1ccc(Cl)c(-c2nc3ccccc3o2)c1	inactive: 9.86%
Cc1cccc(N2CCN(C(=O)c3cc4c(=O)n(C)c5ccccc5c4s3)CC2)c1C	inactive: -9.16%

SMILES	activity change, positive = activation
CC(=O)N1CCC2(CC1)OC(=O)C(C)=C2C(=O)NCc1ccc(Cl)cc1	inactive: -13.7%
CCc1ccc(CNC(=O)c2ccc3nc(C(C)C)oc3c2)cc1	inactive: 18.4%
Cc1nn(-c2nc(-c3ccc(F)cc3)cc(C(F)(F)F)n2)c(C)c1Cl	inactive: 8.98%
CC1=NN(c2ccccc2)C(=O)C1	inactive
COc1ccc(OC(C)c2nc3ccccc3[nH]2)cc1 (stereo unspecified)	inactive: 12.3%
O=C(Nc1ccc2oc(-c3cccnc3)nc2c1)c1ccc(-c2ccccc2)o1	inactive: -34%
CCc1ccc(NC(=O)C(=O)NCC(c2cccnc2)N2CCN(C)CC2)cc1 (stereo unspecified)	inactive: -8.22%
CCCc1ccc(OCC(=O)N2CCN(C(=O)COc3ccc(CCC)cc3OC)CC2)c(OC)c1	inactive: -25.9%
COc1cccc(NC(=O)CCc2nc(-c3cc(OC)c(OC)c(OC)c3)no2)c1	inactive: -27.9%
COc1ccc(CCNC(=O)c2cc(-c3ccc(Cl)cc3)on2)cc1OC	inactive: -14.8%
CCOC(=O)c1ccc(NC(=O)c2cc3c(=O)n(C)c4ccccc4c3n2C)cc1	inactive: -5.23%
CCCCCNC(=O)N1CCC(CN(Cc2ccc(Cl)cc2)Cc2ccc([N+](=O)[O-])s2)C1 (stereo unspecified)	inactive: -16.2%
Cn1c(=O)cc(SCC(=O)Nc2cccc(C#N)c2)c2ccc(Cl)cc21	inactive: -17.5%
Cc1ccc(C)c(NC(=O)C(=O)NCCc2csc(-c3cccc(F)c3)n2)c1	inactive: -5.35%
COc1cc2c(C(=O)N3CCN(c4ccc(C)cc4)C(C)C3)cn(CC(C)C)c(=O)c2cc1OC (stereo unspecified)	inactive: -29.5%
Cc1nc2ccccn2c(=O)c1NC(=O)c1ccccc1Cl	inactive: 27.6%
COc1ccc(N2CCN(C(=O)Cc3noc4ccc(C)cc34)CC2)cc1	inactive: -8.01%
COC(=O)C1=C(C)NC(C)=C(C(=O)O[C@@H]2CCCN(Cc3ccccc3)C2)[C@@H]1c1cccc([N+](=O)[O-])c1	inactive: -42.2%
CCc1ccc(NC(=O)Cn2ccn(-c3cccc(Cl)c3)c(=O)c2=O)cc1	inactive: -14.5%
COc1ccc(C(=O)N2CCC(c3ccncc3)CC2)cc1OC	inactive: -23.7%
Cc1ccc(CN2CCc3nc(N4CCN(C)CC4)ncc3C2)cc1	inactive: -16.3%
COc1ccc(/C=C/c2nc(C#N)c(NC3CCCCC3)o2)cc1OC	inactive: -12.3%
O=C(CCS(=O)(=O)c1cc2c3c(c1)CCN3C(=O)CC2)NCc1ccc(Cl)cc1	inactive: -13.5%
CCOC(=O)C1=C(CN2CCN(c3ccccc3F)CC2)NC(=O)NC1c1ccc(OC)cc1 (stereo unspecified)	inactive: -24.5%

SMILES	activity change, positive = activation
COC(=O)CSc1ccc2nnc(CCNS(=O)(=O)c3ccc(C)cc3)n2n1	inactive: -4.38%
CCc1cccc(C)c1Nc1c(-c2cccc(O)c2)nc2cnccn12	inactive: -22.4%
COc1ccccc1CNC(=O)Cn1c(-c2cccs2)cc2cc(F)ccc21	inactive: -7.89%
CCOc1ccccc1NC(=O)Cn1nc2c3cc(F)ccc3n(Cc3cccc(C)c3)cc-2c1=O	inactive: -16.9%
Cn1c(=O)c2c(nc(NCCc3ccccc3)n2Cc2ccc(Cl)c(Cl)c2)n(C)c1=O	inactive: -7.74%
O=C(O)CCNC(=O)c1ccccc1	inactive: 4.26%
CC(C)c1nn2c(=O)cc(COC(=O)c3ccccc3NC(=O)c3cccs3)nc2s1	inactive: -10.8%
CCCN(Cc1cccs1)C(=O)Nc1ccccc1C	inactive: -5.21%
COc1ccc(S(=O)(=O)NCCc2cn3ccsc3n2)cc1OC	inactive: -11.8%
CCOc1ccc(N(Cc2cc3cc(C)ccc3[nH]c2=O)C(=O)c2cccc(Cl)c2)cc1	inactive: 19%
O=C(N[C@H](CO)[C@H](O)c1ccc([N+](=O)[O-])cc1)C(Cl)Cl	inactive
Cc1nc2sccn2c(=O)c1S(=O)(=O)NCc1ccccc1	inactive: -9.72%
COc1ccc(Nc2nnc(-c3ccc(C)c(S(=O)(=O)N4CCN(C)CC4)c3)c3ccccc23)cc1	inactive: 13.2% [at 11.5 µM, percent change from vehicle, -100% = no light]
CCOc1ccccc1C1CC(=O)NC(C)=C1C(=O)OCc1ccc(C)cc1 (stereo unspecified)	inactive: -33.2%
COC(=O)c1ccc(OC)c(CN2CCCN(Cc3ccc(C)cc3)S2(=O)=O)c1	inactive: -38.2%
Cc1oc2c(c1C(=O)Nc1ccc(Cl)cc1F)C1=NCCN1C=N2	inactive: 2%
COc1ccc(Cl)cc1C(=O)NCC(c1ccc(N(C)C)cc1)N1CCOCC1 (stereo unspecified)	inactive: -13.1%
Cc1cccc(C)c1OCC(=O)N(Cc1ccc(Cl)cc1)CC1CCCO1 (stereo unspecified)	inactive: -26.1%
O=C(COc1ccccc1)Nc1ccc(C(=O)OCc2cc(=O)n3nc(C4CC4)sc3n2)cc1	inactive: 10.1%
Cc1nc2nc(SCC(=O)NCc3ccccc3)nn2c(C)c1Cc1ccccc1Cl	inactive: -13.5%
COc1ccc(-n2c(/C=C/c3cc(OC)c(OC)cc3OC)nc3cc4ccccc4cc3c2=O)cc1Cl	inactive: -12.6%
Cc1ccc(OCCSc2nc3ccc(NC(=O)COc4ccc(F)cc4)cc3s2)cc1	inactive: -10.1%
CCN(CC)CCNC(=O)C1CCN(S(=O)(=O)c2c(C)noc2/C=C/c2ccccc2F)CC1	inactive: 5.03%
O=C(Cc1cccs1)NC1CC(=O)N(c2ccccc2)C1 (stereo unspecified)	inactive: -6.92%

SMILES	activity change, positive = activation
COc1ccc(-c2c(C)nn3c(C(F)(F)F)cc(-c4ccc(Br)cc4)nc23)cc1	inactive: -16.7%
CCc1cccc(C)c1NC(=O)CN1CCCN(Cc2ccc(C)cc2)S1(=O)=O	inactive: -25.1%
CCOC(=O)c1cc(-c2ccc(F)cc2)n(CC(=O)NC2CCCCC2)c1C	inactive: -7.37%
Cc1cc(C)n2c(Nc3c(C)cccc3C)c(-c3ccsc3)nc2n1	inactive: -12%
O=C(CN1CCCN(Cc2ccccc2Cl)S1(=O)=O)Nc1ccc2c(c1)OCCO2	inactive: -8.07%
Cc1ccc(C)c(CN2CCC(CNC(=O)Cn3ncc4c([nH]c5ccccc54)c3=O)CC2)c1	inactive: -12%
CCn1c2ccccc2c2nnc(N3CCN(c4cccc(C)c4C)CC3)nc21	inactive: -2.32%
O=C(NCCCN1CCOCC1)c1ccc2c(c1)N(Cc1ccccc1)C(=O)c1ccccc1S2	inactive: -11.6%
NC/C=C/C(=O)O	inactive: 0.226%
CCOc1ccc(NC(=O)NC(C)c2c(-n3cccc3)sc(C)c2C)cc1 (stereo unspecified)	inactive: -18.4%
Cc1cccc(OCCCCn2nnc3sc4c(c3c2=O)CCC(C)C4)c1 (stereo unspecified)	inactive: -5.2%
O=C(Cn1nc(N2CCN(c3ccccc3)CC2)ccc1=O)NCc1cccc(Cl)c1	inactive: -27.3%
CCOC(=O)CSc1nc2sc3c(c2c(=O)n1Cc1ccccc1)CC(C)CC3 (stereo unspecified)	inactive: -13.9%
CCOc1ccccc1CNC(=O)CN1C(=O)CCCc2ccccc21	inactive: -5.44%
COc1ccccc1NC(=O)Cn1c(=O)n(Cc2ccccc2)c(=O)c2ccccc21	inactive: -24%
COc1ccc(CN2COc3ccc4c(C)cc(=O)oc4c3C2)cc1	inactive: -10.4%
COc1cccc(NC(=O)c2oc3ccccc3c2NC(=O)C23CC4CC(CC(C4)C2)C3)c1	inactive: 12.1%
COc1cccc2c1Oc1nc(-c3ccccc3)nc(SCC(=O)N3CCCCC3)c1C2	inactive: 12.9%
COc1ccc(NC(=O)C(=O)NCCc2csc(-c3ccc(Cl)cc3)n2)cc1	inactive: -14.5%
O=C(CCn1c(=O)c2cccn2c2ccc(F)cc21)NCCc1ccccc1Cl	inactive: -14.9%
CCCOc1ccc(Nc2nc(SC)ncc2C(=O)OCC)cc1	inactive: -8.4%
COC(=O)c1ccc(NC(=O)Nc2nnc(N(C)C3CCCCC3)s2)cc1	inactive: -3.96%
Cc1coc2c(C)c3oc(=O)c(CC(=O)N4CCCCC4)c(C)c3cc12	inactive: -4.96%
Cc1cc(C)cc(-n2c(SCC(=O)Nc3nnc(C)s3)nc3c([nH]c4ccccc43)c2=O)c1	inactive: -17.7%
